Laboratory results from the RNAGym collection of RNA variant scans (doi:10.7554/elife.90254).
Read counts are not given, so values of variants with three or more changes are uncertain.

B1: LINE1-mini (parent)
chain: GGCAGAGCUCAACACAGCGUGGCAAAGUGGCUGUGGCUAGACUGCC

Variants of: B1
Assay: self-cleavage, relative activity (ratio to wild type); higher = more cleavage; in vitro, sequencing; the parent is a self-cleaving ribozyme

| Variant | self-cleavage |
| --- | --- |
| A11C U20G A25U U43A | 0.02 |
| A11G G17U G21U A25C | 0 |
| C10U C18G A41C G44C | 0.03 |
| C10U C15G C18A C31G | 0.02 |
| C10U A12G U28G G40A | 0.03 |
| C10U C13G G36U | 0.07 |
| C10U C15G C18A G44A | 0.03 |
| C10U A24G A25C A39U | 0.03 |
| C10U G19U U43A | 0.05 |
| C10U C13U G29U | 0.07 |
| C10U C13U C46A | 0.07 |
| A11G G19U G21A C42A | 0.01 |
| C10U A16G G19U A25C U38A C42A | 0 |
| C10U C23U U28C C31G | 0.23 |
| A11C A14C G22C | 0.06 |
| A11G G19A G33U C45G | 0.04 |
| C10U A14C A25U C37A | 0.06 |
| C10U A24C A25C | 0.25 |
| C10U G29A C31A | 0.34 |
| A11G G17C A26U U38G G40C | 0 |
| A11C C18G G19U G21U C42A | 0.02 |
| C10U G36U C46U | 0.04 |
| A11C U20C G35A A39G C46U | 0 |
| A11G C15A G29U | 0.03 |

| Variant | self-cleavage |
| --- | --- |
| A11G C13U G21U U34G | 0.01 |
| C10U A14C G22U G27U U38C | 0.03 |
| C10U C13U A16G C31U | 0.01 |
| C10U A12G G19A G35U C45U | 0 |
| C10U A12U A24G U43G | 0.23 |
| A11C A12C G44U | 0 |
| A11C G22C G27C U28A G30C A41C | 0.01 |
| C10U A16G G19C U32G A39U | 0.03 |
| C10U C13A U20G G27C G33A G40U | 0.01 |
| C10U G17C C18A A41G | 0.04 |
| C10U C31U C42G G44U | 0.06 |
| C10U C31G G40C | 0.01 |
| C10U G19C G21U | 0.24 |
| A11G A12G G29A C31G | 0.02 |
| A11C G17U G30U | 0 |
| C10U A11G A14G C15U U28G C37A | 0.01 |
| C10U A25U U28A G29C G44A | 0.04 |
| A11C C13G C15A | 0.01 |
| C10G U20G G22A C31G | 0.03 |
| A11G C15U U32A | 0.01 |
| C10G U20A U43A | 0 |
| C10U A12U U20G G27A | 0.15 |
| A11C G21C G22U G27U | 0.01 |
| A11C C13G G19A C42G | 0.03 |

| Variant | self-cleavage |
| --- | --- |
| A11C U34G C37A | 0 |
| A11G C15A C23G | 0.04 |
| A11G G21C G30C C46G | 0.01 |
| C10U G21U G33U G36U C37A | 0.06 |
| A11C A12U A14C U34C C45U | 0.05 |
| A11C C13G U20C G22U U34A | 0.02 |
| A11G A24C G29A A41U | 0.01 |
| A11C A14G G21A C23G | 0.05 |
| A11C A25C G27U U28C | 0.04 |
| C10U A24C A41G | 0.01 |
| A11G G19A A25C C31U G40C | 0.02 |
| C10U G19U A26G U28G | 0.18 |
| C10U U20A G40A | 0.01 |
| C10U C13U C37A C46A | 0.07 |
| A11C G21U C42G | 0.02 |
| C10U A16C U28A G30A C46G | 0 |
| C10G U20A G21C | 0.02 |
| C10U A11C C45U | 0.06 |
| C10U C23U C37A C45U | 0.09 |
| C10U G21U A26C C31U G40U C42U C46G | 0.01 |
| A11C G40C C42A | 0.01 |
| A11C A24C A25U U34C | 0.02 |
| C10G U32C G36A | 0.06 |
| A11G C13U G17U C18G U20G U43A | 0.01 |

| Variant | self-cleavage |
| --- | --- |
| A11G G21A A24U A39G | 0.02 |
| C10U C15U G17A A26C G33C A41C | 0.02 |
| A11C A14G C15U A16U U28G C31G | 0 |
| A11C C23U G36U C37U U38A G40A C45A | 0 |
| C10U C13U G19C G30U | 0.06 |
| C10U C23U G44C | 0.07 |
| A11G A24C U28A U32G | 0.01 |
| A11C C15A A39C C45A | 0 |
| A11C G19U G29A A41U | 0.03 |
| C10U C23G A39C | 0.04 |
| C10U A12U C13U C15A A16U G30U | 0.07 |
| A11C G22A G44A | 0.02 |
| A11C A24U G29C | 0.05 |
| C10U U34C A39C | 0.04 |
| A11G G17A G21U G22U | 0.02 |
| C10U G22U A25U G30U | 0.6 |
| A11C C23A A41U C46U | 0.03 |
| A11C C15A C23G G40A | 0.02 |
| A11G C15G G30A | 0.01 |
| C10U C13U C37A | 0.01 |
| A11C C18U A26C | 0.01 |
| A11C G30A C46A | 0.04 |
| A11C G29A A39G | 0 |
| C10U C13G G30U C31G | 0.03 |

| Variant | self-cleavage |
| --- | --- |
| A11G A16G G29A G33U | 0 |
| C10U G21C U43G C46U | 0 |
| C10U G29C G44U | 0.07 |
| C10G G29C A41C | 0.01 |
| C10U C15U A16G | 0.83 |
| A11C C13U G33U | 0.04 |
| A11C G35A G44U | 0.01 |
| C10U G17A C18A G29U | 1.22 |
| A11C G22U A26U U28A | 0.01 |
| C10U A16U C18A C23A G27A C37U A41G | 0.01 |
| A11C G21C C23G A41C | 0 |
| C10G G30A A39C | 0.02 |
| A11G G21U A25C | 0.02 |
| C10U G29A G33U U38C | 0.03 |
| C10U U34C C37U | 0.01 |
| A11C C31G G35A | 0 |
| A11G A14C C23A | 0.01 |
| A11C G17U U28C G30A A41C | 0.01 |
| A11C A24U U34A | 0 |
| A11C G17U C46A | 0.01 |
| C10U G22A G33C | 0.03 |
| A11G A24G G40C | 0.01 |
| C10U G22U A39G | 0.03 |
| A11C G21A A26U C46A | 0 |

| Variant | self-cleavage |
| --- | --- |
| C10U A11U G35C G40U | 0.03 |
| A11C A12G C15U G27U C42A | 0 |
| A11C A12G G30A U38C A41C | 0.02 |
| A11C G19U G22A U38A | 0.85 |
| C10U C18G U20A G33C | 0.03 |
| C10U C37A C45G | 0 |
| A11G A41U G44A | 0.01 |
| C10U C18G G27A U32G | 0.05 |
| A11G C15A G21A C46U | 0.02 |
| C10U G19A G36A U38A | 0.03 |
| A11G C15A A25G G40U | 0 |
| C10U A24U C31U | 0.08 |
| A11C G22U A26C C31U | 0.02 |
| A11G G17C U38A | 0.02 |
| A11G A14G C15G | 0.02 |
| A11C U20A U28G | 0.02 |
| C10U C31G U43C | 0.01 |
| C10U A25U G36A | 0.03 |
| A11G A14G U20C A39C | 0.08 |
| C10U A24C G27C C45A C46A | 0.05 |
| C10U C18G A26G G30A | 0.33 |
| A11C G27C G40U | 0.02 |
| C10U A25U G27U | 0.18 |
| A11G A26C G27A A39G G40U G44A | 0.01 |

| Variant | self-cleavage |
| --- | --- |
| A11C G21C C23A G27C G33A G35C | 0.01 |
| C10U A41C C45G | 0.03 |
| A11G G17A C31U G35U | 0.07 |
| C10U A11C U32A | 0.01 |
| C10U A26G G44A C45A | 0.04 |
| A11G C18G G22U A26U | 0.01 |
| A11C A14G C31G | 0 |
| A11C A16U C31U | 0.01 |
| C10U A14G A25G A26U | 0.05 |
| A11G C13A C15U A16C A26G G30A G33A C46G | 0.02 |
| C10U A16C C18U G33C C37U U38C A41U C46A | 0 |
| C10U A11U C15U G21C | 0.06 |
| A11G A14G C15U C18A A39U C42A | 0 |
| C10U A24U C45U | 0.23 |
| C10U C18A A26U G33C U34G C37A U43A | 0 |
| C10U C18U G36A | 0 |
| A11G C18U G21A A24G U32A A39G A41U | 0.01 |
| A11C C18A C23U G27C C37A | 0.02 |
| A11G C13A G30C G33U A39C | 0.02 |
| A11G C13G C15G G30C G33A | 0.02 |
| C10U C13A C45U | 0.06 |
| A11G C15G A25U C31G | 0 |
| A11G G19A G33A C45A | 0.01 |
